# Data reported in the supplement of paper PMC3334620.
# The full ranking holds about 33,000 sequences; the median of “E-score (-0.5 to 0.5)” is about -0.054, and the highest 2% start at about 0.35. The list shows a part of the results.
# Biological target: T1, Stb5 (UniProt P38699)
# T1 sequence: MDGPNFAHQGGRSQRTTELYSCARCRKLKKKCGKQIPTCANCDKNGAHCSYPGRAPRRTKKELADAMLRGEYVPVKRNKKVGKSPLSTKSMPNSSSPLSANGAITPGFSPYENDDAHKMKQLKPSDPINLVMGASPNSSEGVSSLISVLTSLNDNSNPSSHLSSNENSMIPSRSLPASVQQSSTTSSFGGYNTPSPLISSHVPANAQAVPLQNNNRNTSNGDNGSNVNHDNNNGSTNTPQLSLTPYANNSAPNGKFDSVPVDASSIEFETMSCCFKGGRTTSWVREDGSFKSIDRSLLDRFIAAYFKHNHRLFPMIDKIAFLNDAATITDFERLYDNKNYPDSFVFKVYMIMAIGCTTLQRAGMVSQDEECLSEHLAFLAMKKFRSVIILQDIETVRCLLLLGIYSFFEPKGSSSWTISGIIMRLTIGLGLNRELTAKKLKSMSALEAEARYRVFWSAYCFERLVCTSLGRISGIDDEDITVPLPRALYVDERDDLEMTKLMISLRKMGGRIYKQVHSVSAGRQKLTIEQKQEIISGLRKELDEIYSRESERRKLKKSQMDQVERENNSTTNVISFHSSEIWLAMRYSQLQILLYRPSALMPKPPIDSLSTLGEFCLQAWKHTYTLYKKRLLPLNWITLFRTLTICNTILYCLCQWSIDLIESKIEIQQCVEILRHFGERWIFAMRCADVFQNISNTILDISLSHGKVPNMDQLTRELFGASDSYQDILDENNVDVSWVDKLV
# Experiment: PBM E-score (8-mer binding enrichment) (E-score (-0.5 to 0.5)); higher = stronger / more preferred TF binding; most listed sequences are background and not binding sites
# Conditions: protein concentration: 200 nM; construct: GST-full length
# Description: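 Universal 'all 10-mer' protein binding microarrays (Agilent AMADID 015681) probed with GST-tagged S. cerevisiae TFs (full-length or DBD) made by in vitro transcription/translation (PURExpress), about 100-200 nM. Bound TF was detected with fluorescent anti-GST. Each ungapped 8-mer (which stands for itself and its reverse complement) is scored by the PBM enrichment score (E-score), a modified Wilcoxon-Mann-Whitney statistic from -0.5 to +0.5, computed with the Universal PBM Analysis Suite. Scale: above 0.35 generally sequence-specific binding.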
row,Sequence,PBM E-score
1,GATGGTAA,-0.153
2,AGTTGGCG,-0.00568
3,GATTATCA,-0.0447
4,CGACGTCG,0.0543
5,GACAGAGA,-0.106
6,CTAATTAC,-0.0792
7,AGCAATAT,-0.121
8,AGAGTCAA,-0.162
9,GGTAATAA,0.345
10,ACATGCTA,-0.218
11,CGAAGCCG,0.0327
12,AGGTAGCA,-0.179
13,CATGGGAA,-0.0915
14,CTTGTGGA,-0.27
15,ATGTACGG,0.0942
16,CGCGTTTA,0.173
17,AAGGAGAC,-0.119
18,GGCGGACA,0.357
19,AATTGCCG,0.354
20,ACTCCCCG,0.211
21,GCCAGTTA,-0.177
22,CGACCCTA,-0.00369
23,CTTAAATA,-0.108
24,AGTCGTAT,-0.144
25,GGTGACCA,-0.196

row,Sequence,PBM E-score
1,GGCTTGGA,-0.381
2,CCGATGCG,0.339
3,CGGTACGA,0.336
4,ACCCATTA,-0.191
5,AAGGGGCT,-0.145
6,CAAGTGTG,-0.224
7,CCCACGCG,-0.0306
8,CGAACACG,-0.0434
9,GTGCTTGA,-0.223
10,GCGTATCC,-0.0868
11,CACTTTCC,-0.078
12,ACCCGAAG,-0.0312
13,GCGTTAGC,0.125
14,ACCGTAGT,0.14
15,TGTGTAAA,-0.112
16,AAACCCAA,-0.252
17,ATGAATTC,0.0646
18,CAATCACA,-0.104
19,AACAATCA,-0.212
20,ATCATAGG,0.0131
21,ACGATAGG,0.00485
22,AGAGTAAC,-0.165
23,GACGTTAA,0.0475
24,TCAACTAA,-0.125
25,AACTTAGG,-0.163

row,Sequence,PBM E-score
1,GTCTGGCA,0.00084
2,GGGTGCGA,-0.0506
3,TGTTCAAA,-0.112
4,AGGTGTCA,0.12
5,CCGAAAAA,0.105
6,GTTCAGGA,-0.0733
7,AAAAATCA,-0.158
8,CCATACAA,-0.267
9,CAAATTAC,0.0913
10,GAGACGAC,-0.0645
11,CTTAGGAA,0.0538
12,GTTGTGAA,-0.301
13,ACGGGAAT,0.371
14,CTATTGTC,-0.167
15,TCCTCTCA,-0.269
16,GATGGAAA,-0.153
17,ACCAAGTA,-0.187
18,ACGGCAGG,-0.0969
19,GTATATGA,0.00913
20,ATTTACTA,-0.158
21,GGGTTCAA,0.109
22,ATTTTTCG,-0.202
23,CCGGATAA,0.344
24,GTTGGAGA,0.0784
25,CTCTCCCA,-0.243

row,Sequence,PBM E-score
1,AACGCTCG,-0.0301
2,CCAAACTC,-0.0172
3,ACCCGCGC,0.202
4,CGACCTAC,-0.178
5,GATGGGGC,-0.0973
6,GGCCTACA,0.115
7,AAAATCGC,-0.032
8,CGGGGAAC,0.141
9,CCGTACAG,0.054
10,GTTACTAA,-0.129
11,CTGTTCGC,-0.0755
12,CTGGGGTA,-0.00994
13,GCCCACCC,-0.0631
14,ATACCGTA,0.259
15,CTTAGATA,-0.00866
16,GGGTCTAA,0.174
17,GTCGGGTA,0.143
18,AATCGCCT,-0.239
19,ATGGCCAT,-0.154
20,ATTGGCTG,-0.164
21,GGATTCAC,0.124
22,AGGCCTCC,-0.259
23,CGGCTCAA,0.0531
24,TATTGTAA,-0.00772
25,TCACCTCA,-0.202

row,Sequence,PBM E-score
1,AGCCCTAG,-0.177
2,GCTAACCA,-0.11
3,CGTGATGA,-0.219
4,ATGCTAAT,-0.26
5,CATTAAAA,0.121
6,CGCCGGGC,0.318
7,GGAGGCCC,0.0592
8,AAGTCGCT,-0.139
9,GAGCTTAC,0.00679
10,CTTCGAGC,-0.0166
11,AAAATCTC,-0.189
12,GCCAAGAC,-0.0423
13,CTGACCAC,-0.266
14,ATTCGCCA,-0.185
15,TACACAAA,0.136
16,CCACCCAG,-0.0716
17,AACTACAC,-0.154
18,CCGCCAAA,0.292
19,AATAGCTA,-0.151
20,CCTGTGAA,-0.157
21,GGGGTAGA,0.0235
22,GCTCTTAA,0.215
23,GTATGGAA,-0.143
24,GATAGTCA,0.0661
25,ATCTATAA,0.134

row,Sequence,PBM E-score
1,AAAGCATA,-0.0489
2,CATATTCC,0.0411
3,CAGGTACA,-0.0453
4,GGGCTCCA,-0.123
5,ATGTACAC,-0.21
6,CCCGGGGC,0.258
7,CCCTGACG,0.0575
8,CACGCGGA,0.231
9,GAACCATC,-0.135
10,AACTCAGT,-0.214
11,GCGGATAA,0.236
12,GACCAAAA,0.0332
13,CTTGATTA,0.0908
14,ATAGAGTG,-0.054
15,CTATATCA,0.0852
16,AAATTCGG,0.12
17,GGTGGACA,0.00374
18,AAAATGTA,-0.0998
19,ACGTTCGA,-0.227
20,AGATGAAC,-0.109
21,ATGACCAG,-0.211
22,CAGGATAC,-0.0969
23,AATCATAT,-0.207
24,CTGTGTAA,-0.191
25,TAGGGAAA,0.0766

row,Sequence,PBM E-score
1,AAGCCTCC,-0.0443
2,GTGACAAC,-0.0547
3,CTTTCATA,0.109
4,CCGGCGCC,0.293
5,AAAATAGG,0.0823
6,GAGATGAA,-0.00726
7,GCTAGAGA,-0.135
8,ACGGTTCG,0.0226
9,CGACTCTC,-0.012
10,GAAAGACC,0.19
11,AGAGCAGG,-0.111
12,TATCGAGA,-0.289
13,ACAAGACT,-0.362
14,CCCAGGGG,-0.0984
15,GGTAGCCA,-0.332
16,GGTTGCGA,-0.0196
17,ATAGCAAT,-0.0233
18,AATGTTGC,0.00161
19,AAGTTGCG,-0.0157
20,CAGGCACG,0.134
21,CCCGCTCC,0.268
22,AGATTGGC,-0.0759
